Out of some 45,000 compounds screened, about 200 (0.44%) were called active. Inconclusive results (about 7%) are left out. Calls come from the whole dose curve; as a rule, active = well fitted activation curve with a large enough effect; inconclusive = small, poorly fitted or top-dose-only effect; inactive = no such curve, though single readings can be large or run the other way. The list shows a part of the results.
assay: qHTS of TDP-43 Inhibitors: NCGC Sytravon Library Screen; details: yeast TDP-43 toxicity rescue, BacTiter-Glo growth, 24 h; series mostly up to 46.1 µM; growth rescue (activation): at the top concentration; note: 0% is about no effect; nearly all actives have a fitted effect of over 55% in size
Procedure, shortened: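 TDP-43-expressing yeast, pregrown in raffinose, seeded at OD600 0.02 in galactose medium with compound for 24 hr at 30 deg C. Growth read by BacTiter-Glo luminescence, so rescue of toxicity appears as activation.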

| SMILES | growth rescue (activation) |
| --- | --- |
| CNS(=O)(=O)c1cc(NC(=O)CCCNC(=O)c2ccc(Cl)cc2)ccc1C | inactive: -6.56% |
| CCN(CC)S(=O)(=O)c1cc(C(=O)N2CCc3ccccc32)ccc1Cl | inactive: 5.98% |
| CC(c1nc2ccccc2c(=O)[nH]1)N1CCOCC1 (stereo unspecified) | inactive: 6.4% |
| O=C(NC1CCCCC1)C(=S)NCCc1ccccc1 | inactive: 2.43% |
| O=C1C(=O)N(Cc2ccco2)C(c2cccc(Cl)c2)/C1=C(\O)c1ccc2c(c1)OCCO2 (stereo unspecified) | inactive: 6.08% |
| O=C(CN1CCOCC1)NN=C1CCCCCCCCCCC1 | inactive: -14.4% |
| CCN(Cc1nc(-c2ccc(OC)c(OC)c2)no1)C(=O)c1ccoc1C | inactive: 4.17% |
| CCOc1ccc(C2/C(=C(\O)c3cccc(OC)c3)C(=O)C(=O)N2c2ccccn2)cc1OC (stereo unspecified) | inactive: -20.6% |
| Cc1c(C(=O)N(C)Cc2cccc(F)c2)oc2c(Cl)cccc12 | inactive: 19.1% |
| O=C(NC1CCCCC1)c1ccc2c(c1)OCO2 | inactive: 10.3% |
| COc1ccc(/C=C2\SC(=S)N(NC(=O)c3csc4c3CCCC4)C2=O)cc1 | inactive: 31.4% |
| CCC1CCC(NC(=O)Nc2cccc(OC)c2)CC1 (stereo unspecified) | inactive: 7.21% |
| Cc1cc(=O)[nH]c(SCC(=O)NC2CCCCCC2)n1 | inactive: -1.26% |
| Cc1ccc(C(=O)Nc2nnc([C@H]3C[C@H](O)[C@@H](CO)O3)s2)cc1 | inactive: -1.47% |
| CN(Cc1cccs1)C(=O)CN1CCN(S(=O)(=O)c2ccc3c(c2)OCCCO3)CC1 | inactive: 9.75% |
| O=C(O)Cn1cc(/C=C2\SC(=O)N(c3ccccc3)C2=O)c2ccccc21 | inactive: 5.54% |
| COc1cc(/C=C/c2cc[n+](C)cc2)ccc1OCC(=O)Nc1ccccc1 | inactive: -4.24% |
| Cc1ccccc1OCC(O)CN(Cc1ccccc1O)C1CCCCC1 (stereo unspecified) | inactive: 10.3% |
| Cc1cc(OCC(=O)Nc2ccncc2)ccc1Br | inactive: 16.3% |
| COc1ccccc1-n1c(/C=C/c2c(C)n(C)c3ccccc23)nc2ccccc2c1=O | inactive: 2.23% |
| COc1cc(S(=O)(=O)Nc2cc(C)cc(C)c2)ccc1F | inactive: 2.8% |
| Cc1nc2sc3c(c2c(=O)[nH]1)CCCCC3 | inactive: 28.1% |
| CCc1nc2ccc(C(=O)N3CCN(C(=O)c4ccco4)CC3)cn2c1N(C)Cc1nccn1C | inactive: -1.96% |
| CCN(CC)S(=O)(=O)c1ccc(F)c(C(=O)OC2CC(C)OC2=O)c1 (stereo unspecified) | inactive: 3.82% |

| SMILES | growth rescue (activation) |
| --- | --- |
| COc1cc(C=C(c2nc3ccccc3s2)c2nc3ccccc3s2)ccc1O | inactive: 34.7% |
| CC(C(=O)NCCc1ccc(S(N)(=O)=O)cc1)N1C(=O)CC(C)(C)Sc2ccccc21 (stereo unspecified) | inactive: 3.44% |
| CCc1nnc(NC(=O)C2CCN(C(=O)c3ccco3)CC2)s1 | inactive: 4.7% |
| CCOC(=O)c1sc(N/N=C/c2ccccc2)nc1C | inactive: 11.7% |
| COCCNC(=O)C1(C)CCN(Cc2ccccc2C#N)C1 (stereo unspecified) | inactive: -14.4% |
| C=CCOc1ccc(Br)cc1CNCCO | inactive: 1.83% |
| Cc1ccc2ccccc2c1C(O)c1ncc(-c2ccccc2F)[nH]1 (stereo unspecified) | inactive: 19.8% |
| O=c1cn[nH]c2ccccc12 | inactive: 20.4% |
| C=CCOC(=O)C1=C(C)NC(SCC(N)=O)=C(C#N)C1c1cccs1 (stereo unspecified) | inactive: -6.27% |
| COc1ccc(CN(C(=O)CCC(=O)N2CCCCC2)c2nccs2)cc1OC | inactive: 0.087% |
| COc1ccc(CCC(=O)NNC(=O)c2cc(Cl)ccc2OC)cc1OC | inactive: 20.7% |
| O=Cc1cn(CC(O)CN2CCCCC2)c2ccccc12 (stereo unspecified) | inactive: 10.5% |
| COc1ccc(N2C(=O)/C(=C\c3ccco3)N=C2SCC(N)=O)cc1Cl | inactive: 11.4% |
| COc1cc(OC)cc(C(=O)NC(C(=O)N2CCC2)C(C)C)c1 (stereo unspecified) | inactive: -1.19% |
| COc1ccc(N(C)S(=O)(=O)c2cccc3nsnc23)cc1 | inactive: 21.5% |
| Cc1oc(-c2ccccc2)cc1C(=O)Nc1ccccc1 | inactive: -3.27% |
| CC1CC(CCC(=O)NC(=S)Nc2ccc(S(N)(=O)=O)cc2)C(=O)O1 (stereo unspecified) | inactive: 2.63% |
| COc1ccc(-n2cnnc2)cc1 | inactive: -7.16% |
| COc1ccc(OC)c(NC(=O)c2ccccc2NC(=O)c2ccco2)c1 | inactive: 18.4% |
| CC1Oc2ccccc2N(CC(=O)NC2CCCC2)C1=O (stereo unspecified) | inactive: 8.45% |
| C/C(CC(=O)Nc1cc(Cl)ccc1Cl)=N\NC(=O)COc1cccc(C)c1 | inactive: 9.32% |
| CN(C)CCNC(=O)COc1ccc(Cl)cc1Cl | inactive: 18.7% |
| Cc1cccc(Nc2nnc(-c3ccc(N4CCOCC4)c([N+](=O)[O-])c3)c3ccccc23)c1 | inactive: 4.54% |
| Cc1cccc(C)c1OCc1cc(C(=O)N2CCN3CCCC3C2)no1 (stereo unspecified) | inactive: 7.68% |

| SMILES | growth rescue (activation) |
| --- | --- |
| O=C(CSc1nnnn1-c1cccc2ccccc12)NC(C(=O)O)(c1ccccc1)c1ccccc1 | inactive: 11.7% |
| CC(C)c1ccc(NC(=O)CSc2ncccc2C(=O)Oc2cccc([N+](=O)[O-])c2)cc1 | inactive: 5.58% |
| Cc1ccc(N2NC(=O)/C(=C/c3ccc(-c4ccc(Cl)c(C(=O)O)c4)o3)C2=O)cc1 | inactive: -7.76% |
| Cc1[nH]c2ccccc2c1C(=O)CSc1ccccn1 | inactive: 1.27% |
| O=S(=O)(c1ccccc1)c1nc(-c2ccco2)oc1N1CCCCC1 | inactive: 11.1% |
| CC(C)C(N)c1csc(NC(=O)Nc2ccc(OC(F)(F)F)cc2)n1 (stereo unspecified) | inactive: 22.3% |
| COC(=O)C1=C(C)NC(C)=C(C(=O)OC)C1c1ccc(C)o1 | inactive: 5.3% |
| Cc1cccc(NC(=O)CCn2c(=O)oc3ccccc32)c1 | inactive: 22.3% |
| N#Cc1c2c(c(Nc3ccccc3)n3c1nc1ccccc13)CCC2 | inactive: 27% |
| COc1ccc(/C=C/C(=O)NC2CCCCCCC2)cc1S(=O)(=O)N1CCOCC1 | inactive: 6.72% |
| CC1CCN(S(=O)(=O)c2ccc3c(c2)CCN3C(=O)Nc2ccc(Br)cc2)CC1 | inactive: -0.404% |
| COc1cccc(NC(=O)C2C3C=CC(C3)C2C(=O)O)c1 (stereo unspecified) | inactive: 9.48% |
| Cc1ccc(C)c(NC(=O)CN(C)C(=O)c2ccc(Cl)nc2)c1 | inactive: -8.65% |
| O=c1ccc(-c2n[nH]c(=S)n2-c2ccc(F)c(Cl)c2)n[nH]1 | inactive: 3% |
| CCCCNC(=O)N1c2ccccc2CC1C (stereo unspecified) | inactive: 15% |
| COCCC(=O)N1CCCC(C(=O)c2ccccc2SC)C1 (stereo unspecified) | inactive: -0.176% |
| CC1CC(C)CN(S(=O)(=O)N2CCC(C(=O)NCCC3=CCCCC3)CC2)C1 (stereo unspecified) | inactive: 9.93% |
| Cc1nn(-c2ccccc2)c2sc(C(=O)n3cccn3)cc12 | inactive: 17.2% |
| CCCCNC(=O)C1(C)CCCCN1C(=O)c1cncc(Br)c1 (stereo unspecified) | inactive: 6.23% |
| COc1ccc2[nH]cc(CCNC(=O)c3ccccc3Cl)c2c1 | inactive: 16.6% |
| Cc1ccc(C2(C)NC(=O)N(CC(=O)N3CC(=O)Nc4ccccc43)C2=O)cc1 (stereo unspecified) | inactive: -6.15% |
| c1ccc(COc2cccc(CNCc3cccs3)c2)cc1 | inactive: 5.38% |
| Cc1ccc(C(=O)CCC(=O)OCC(=O)N2c3ccccc3NC(=O)C2(C)C)cc1 | inactive: 4.08% |

Reference: PubChem BioAssay AID1347073 (National Center for Advancing Translational Sciences (NCATS), 2019)
